Measured values: PubChem BioAssay AID488969 (Vanderbilt High Throughput Screening Facility, 2010)
The full ranking holds about 110,000 compounds; the median of “z-score” is about -0.1, and the highest 2% start at about 2. The list shows a part of the results. Calls of active or inactive are those of the source.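 Rule for the calls: active = z-score in the third read window above 3 or below -3; inactive = the rest.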

Biological target: Metabotropic glutamate receptor 8 (Rattus norvegicus) (UniProt P70579)
Assay: mGluR8 Gi/Go-coupled signaling modulation – cell-based, rat, thallium flux, HTS, primary screen (AID 488969)
Settings: HEK293 rat mGluR8, GIRK (G protein-gated inwardly rectifying potassium channel) thallium flux, FluoZin2; at 10 µM; stronger effect = higher value; submaximal glutamate (EC20) added with thallium

UniProt P70579, sequence (P70579 whole entry, looked up): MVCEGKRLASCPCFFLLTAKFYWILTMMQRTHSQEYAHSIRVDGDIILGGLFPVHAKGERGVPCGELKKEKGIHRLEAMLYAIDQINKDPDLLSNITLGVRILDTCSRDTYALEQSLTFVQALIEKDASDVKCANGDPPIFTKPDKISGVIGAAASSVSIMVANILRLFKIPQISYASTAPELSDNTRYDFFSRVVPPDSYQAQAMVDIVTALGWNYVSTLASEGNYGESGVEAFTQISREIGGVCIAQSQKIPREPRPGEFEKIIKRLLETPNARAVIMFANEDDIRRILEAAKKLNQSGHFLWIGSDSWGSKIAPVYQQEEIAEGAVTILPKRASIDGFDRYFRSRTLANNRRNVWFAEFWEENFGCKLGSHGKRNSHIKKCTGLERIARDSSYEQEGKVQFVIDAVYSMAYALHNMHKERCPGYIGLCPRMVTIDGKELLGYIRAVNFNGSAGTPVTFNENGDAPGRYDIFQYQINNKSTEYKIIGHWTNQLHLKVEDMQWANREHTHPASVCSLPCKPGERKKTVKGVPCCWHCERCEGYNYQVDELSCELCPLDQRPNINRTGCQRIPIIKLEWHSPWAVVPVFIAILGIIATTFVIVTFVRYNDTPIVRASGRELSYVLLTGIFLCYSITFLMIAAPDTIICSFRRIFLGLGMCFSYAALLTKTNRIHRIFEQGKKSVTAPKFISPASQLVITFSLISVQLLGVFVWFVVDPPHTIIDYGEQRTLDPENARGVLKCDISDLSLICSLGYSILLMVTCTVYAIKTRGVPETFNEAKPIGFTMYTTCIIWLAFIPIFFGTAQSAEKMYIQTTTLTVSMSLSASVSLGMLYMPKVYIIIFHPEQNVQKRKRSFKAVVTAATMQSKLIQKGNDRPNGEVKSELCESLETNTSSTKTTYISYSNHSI

Compared with O=C(CSc1nc(-c2ccc(F)cc2)cc(C(F)(F)F)n1)Nc1ccc2c(c1)OCO2, CC1(C)Cc2ccccc2-c2nnc(SCC(=O)Nc3ccc4c(c3)OCO4)n21 is higher in z-score: -0.336 for the first, 1.08 for the second.

Compared with O=C(Nc1ccccc1)c1ccc(-c2ccc(Br)cc2)o1, O=C(O)c1ccccc1-c1ccccc1C(=O)Nc1ccccc1 is lower in z-score: 0.664 for the first, -0.395 for the second.

Compared with Cc1cc(C)c(S(=O)(=O)Nc2cc(SCC(=O)O)c(O)c3ccccc23)cc1C, Cc1cc(C)nc(NS(=O)(=O)c2ccc(NC(=O)CN3C(=O)c4ccccc4C3=O)cc2)n1 is higher in z-score: -0.297 for the first, 0.113 for the second.

Going from CN(C(=O)COC(=O)c1ccc2c(c1)NC(=O)CS2)C1CCS(=O)(=O)C1 (stereo not given) to CCOC(=O)c1cccc(N/C=C/C(=O)c2ccc(OC)c(OC)c2)c1, the z-score falls from -0.091 to -0.632.

First: CCOC(=O)C(Oc1ccc2c(-c3ccc(OC)cc3)cc(=O)oc2c1C)c1ccccc1 (stereo not given)
Second: COCC(=O)N(Cc1cc2ccccc2[nH]c1=O)c1ccc(OC)cc1
The z-score of the first is higher: -0.275 for the first, -1.49 for the second.

First: O=[N+]([O-])c1ccc(/C=N/n2c(CO)nc3ccccc32)s1
Second: COC(=O)CSc1nc2ccccc2o1
The z-score of the first is higher: -0.353 for the first, -0.541 for the second.

First: CC(=O)N1CN(C2CCCC2)Cc2c1sc1c2CCCC1
Second: CC(=O)N1CCN(Cc2nc3cc(NC(=O)C4CCCCC4)ccc3n2C)CC1
The z-score of the first is higher: 1.37 for the first, -0.151 for the second.

First: CCOC(=O)c1ccc(Oc2nc(NC(C)(C)C)nc(N(C)C)n2)cc1
Second: CCOC(=O)c1ccc(NC(=O)C2(c3ccc(OC)cc3)CCCC2)cc1
The z-score of the first is higher: 0.241 for the first, 0.229 for the second.

Compared with CCCOC(=O)Nc1cccc(C(C)=O)c1, CCNC(=O)COC(=O)/C=C/c1ccccc1[N+](=O)[O-] is lower in z-score: 0.637 for the first, -0.0333 for the second.

Going from COc1ccc2c(c1)OC(O)(C(F)(F)F)CC2=O (stereo not given) to CC1=NN(C(=O)CCc2ccccc2O)C(O)(C(F)(F)F)C1 (stereo not given), the z-score falls from 0.143 to -0.0235.

Going from CSc1c(CC(=O)Nc2ccccc2C(F)(F)F)n(Cc2ccccc2)c2ccccc12 to O=C(NCCc1c[nH]c2ccccc12)c1cc2sccc2n1Cc1ccccc1, the z-score falls from -0.00769 to -0.216.

Compared with Cc1cc(C)n2c(SCC(=O)Nc3ccccc3)nnc2n1, Cc1cc(NC(=O)CSc2nnc(-c3cccs3)n2N)no1 is lower in z-score: -0.478 for the first, -0.647 for the second.

Going from Cc1ccc(C(=O)NCCCn2ccnc2)cn1 to COCCCNC(=O)c1ccc(NS(C)(=O)=O)cc1, the z-score falls from -0.141 to -0.421.

Compared with COc1cccc(C(=O)N/N=C2/SCC(=O)N2CCc2ccc(OC)c(OC)c2)c1, COc1ccc(CCN2C(=O)CC(Sc3ncccc3C(=O)O)C2=O)cc1OC (stereo not given) is lower in z-score: 0.21 for the first, -0.00798 for the second.

Compared with Cc1cc(C(=O)CSc2nnnn2-c2ccccc2)c(C)n1CCc1ccccc1, Cn1c(CNc2nc(-c3ccccc3)cs2)nnc1SCC(=O)N1CCc2ccccc21 is lower in z-score: 0.0595 for the first, -0.0924 for the second.

Going from O=C(NCC1CCCO1)c1nn2cccnc2c1Cl (stereo not given) to Cc1ccc(N(CC(=O)NCC2CCCO2)S(C)(=O)=O)cc1Cl (stereo not given), the z-score rises from 0.098 to 0.409.

First: COc1ccccc1-n1nnnc1SCC(=O)NC1CCCC1
Second: COc1ccccc1N1CCN(C2CCCC(C)C2)CC1 (stereo not given)
The z-score of the first is lower: -0.293 for the first, 0.0333 for the second.

Compared with O=C(O)c1cc(-c2cccc(Cl)c2)nc2nc(N3CCCCC3)sc12, N#C/C(=C/c1ccc(N2CCCCC2)o1)C(=O)NCCc1c[nH]c2ccccc12 is higher in z-score: -2.04 for the first, -0.0611 for the second.

Compared with O=C(c1cc2ccccc2oc1=O)N1CCN(C(=O)C2CCCO2)CC1 (stereo not given), O=C(c1ccc(NC(=O)C2(c3ccccc3)CCOCC2)cc1)N1CCOCC1 is higher in z-score: -0.35 for the first, -0.149 for the second.

First: COC(=O)c1sccc1NC(=O)c1cc(OC)c(OC)c(OC)c1
Second: COC(=O)c1cc(NS(=O)(=O)c2ccc(OC)c(OC)c2)ccc1Cl
The z-score of the first is lower: -0.289 for the first, 0.211 for the second.

First: O=C(Cc1cccs1)NCc1cccs1
Second: O=C(Cn1ccc([N+](=O)[O-])n1)NCc1cccs1
The z-score of the first is higher: 0.383 for the first, -0.494 for the second.

Going from Fc1cc(F)c2nc(N3CCOCC3)sc2c1 to COc1ccc(CSc2nc(CSC)cc(N3CCOCC3)n2)cc1, the z-score rises from -0.0475 to 0.264.

Going from CC1=CCC2C(=O)N(c3ccc(C(=O)N4CCCCCC4)cc3)C(=O)C2C1 (stereo not given) to O=C(Nc1ccc(S(=O)(=O)N2CCCCCC2)cc1)c1ccco1, the z-score falls from -0.103 to -0.549.

Going from O=C(c1ccco1)N1C(=O)c2cccc3c(S(=O)(=O)N4CCCC4)ccc1c23 to CCn1c2ccccc2c2cc(NC(=O)COC(=O)c3cc(S(=O)(=O)N4CCCCC4)ccc3Cl)ccc21, the z-score falls from 0.0162 to -0.171.

First: Cc1cc(C)n(-c2nnc(C)n2/N=C/c2ccccc2O)n1
Second: Cc1cc(C)nc(N(C#N)CN2C(=O)c3ccccc3C2=O)n1
The z-score of the first is higher: 0.187 for the first, -0.507 for the second.

First: Cc1ccc(C2NC(c3ccc(C)cc3)C(C)C(=NO)C2C)cc1 (stereo not given)
Second: Cc1ccc(C2CC(C(F)(F)F)n3ncc(C(N)=O)c3N2)cc1 (stereo not given)
The z-score of the first is lower: -0.376 for the first, -0.048 for the second.

First: O=C(c1ccccc1)c1cnc(-c2ccc(Cl)cc2)s1
Second: COc1ccc(C(=O)NNc2ccccc2)cc1
The z-score of the first is lower: -0.16 for the first, -0.0891 for the second.

Compared with COc1cccc(CN=CC2=C(O)CC(C)(C)CC2=O)c1OC, COc1cc(C2C3=C(CCCC3=O)Nc3[nH]n(-c4ccccc4)c(=O)c32)ccc1O (stereo not given) is lower in z-score: -0.218 for the first, -0.337 for the second.

Going from CCCCN(CCCC)S(=O)(=O)c1ccc(NC(=O)c2cccs2)cc1 to CCN(CC)CCN1C(=O)C(O)=C(C(=O)c2cccs2)C1c1ccc(C)o1 (stereo not given), the z-score falls from 0.572 to -0.375.

First: O=C(COc1ccc2c(C(F)(F)F)cc(=O)oc2c1)Nc1ccc(N2CCOCC2)cc1
Second: O=C(CN1CCN(S(=O)(=O)c2ccc(Cl)cc2)CC1)Nc1ccc2c(c1)OCCO2
The z-score of the first is higher: 0.563 for the first, -1.19 for the second.

First: CCn1c(=O)cc(OCC(=O)NCCC(C)C)c2ccccc21
Second: Cc1nc2ccccc2nc1OCC(=O)NCC(F)(F)F
The z-score of the first is lower: 0.045 for the first, 0.894 for the second.

Going from Cc1nn(Cc2cccc(C(=O)N3N=C(C(F)F)CC3(O)C(F)F)c2)c(C)c1[N+](=O)[O-] (stereo not given) to COC(=O)C(Cc1cnc(Cl)s1)(C(=O)OC)c1ccc(C(F)(F)F)cc1[N+](=O)[O-], the z-score falls from -0.0565 to -0.16.

Going from Cn1c(=O)c2c(nc(NCc3ccc4c(c3)OCO4)n2Cc2ccccc2F)n(C)c1=O to Cn1c(=O)c(=O)n(C)c2cc(S(=O)(=O)NCCc3ccccc3)ccc21, the z-score rises from -1.19 to -0.321.

Compared with CNc1nc(SCc2ccc(C)cc2)nc2c1CCCC2, CCC(C)NC(=O)c1ccccc1NC(=O)c1ccc(CSc2ccc(C)cc2)cc1 (stereo not given) is lower in z-score: 0.159 for the first, -0.104 for the second.

Going from CSC(=NCc1cccnc1)NS(=O)(=O)c1cccs1 to O=C(/C=C/c1cccs1)NCc1cccnc1, the z-score falls from 1.2 to -0.257.

Compared with COc1ccccc1-n1c(SCC(=O)NC(C)(C)C)nc(O)c(Cc2ccccc2)c1=O, COc1ccc(C(=O)NC(C)c2nnc(SCC(=O)Nc3nc4ccccc4s3)n2C)cc1 (stereo not given) is higher in z-score: -0.0604 for the first, 0.843 for the second.

First: CC(C)(C)NC(=O)C(=O)NNC(=O)COc1ccc(Br)cc1
Second: CCOC(=O)c1cnn(-c2ccc(C)cc2)c1N
The z-score of the first is higher: 1.89 for the first, -0.0833 for the second.

First: CCCS(=O)(=O)N1CCN(Cc2ccco2)CC1
Second: CCn1c(SC)nnc1C1CCN(S(=O)(=O)c2ccc(OC)cc2)CC1
The z-score of the first is higher: 0.471 for the first, 0.44 for the second.

Compared with O=C(Nc1cccc(-c2cnc3ccccc3n2)c1)c1cccc(NC(=O)c2ccco2)c1, CCOC(=O)c1cc2c(=O)n3ccccc3nc2n(Cc2ccco2)c1=NC(=O)c1cccnc1 is lower in z-score: -0.268 for the first, -0.775 for the second.

First: CCCSc1nc2c(c(=O)[nH]c(=O)n2C)n1CCc1ccccc1
Second: Cc1ccc(SCCCCN2C(=O)NC(C)(C)C2=O)cc1
The z-score of the first is higher: 0.364 for the first, -0.428 for the second.

First: CCCN(CCC)C(=O)CC(c1ccccc1)c1ccc(C)cc1O (stereo not given)
Second: Cc1ccc(C(=O)N/N=C2\CCc3ccccc32)c(C)c1
The z-score of the first is higher: -0.601 for the first, -1.24 for the second.

Going from COCc1[nH][nH]c(=O)c1C=Nc1ccc(Oc2ccccc2)cc1 to COc1ccc(NC(=S)c2ccccc2)cc1, the z-score rises from -0.0851 to -0.0621.

Compared with O=C(CCN1C(=O)C2C3C=CC(C3)C2C1=O)N1CCN(c2cccc(Cl)c2)CC1 (stereo not given), O=C(c1ccc(N2CCN(C3CC(=O)N(c4ccc(F)cc4)C3=O)CC2)cc1)c1cccnc1 (stereo not given) is lower in z-score: -0.0338 for the first, -0.22 for the second.

Compared with O=C(NCc1ccccc1)C(c1ccncc1)N(C(=O)c1csnn1)C1CC1 (stereo not given), O=C(c1ccccc1CCc1ccccc1)N1CCOCC1 is higher in z-score: -0.2 for the first, 0.192 for the second.

First: CSc1nc(C)cc(OCC(=O)n2nc(C)cc2C)n1
Second: COC(=O)c1nc(NC(=O)C(C)C)n[nH]1
The z-score of the first is lower: -0.0686 for the first, 0.0584 for the second.

Going from O=C(CSc1nnc(COc2ccc(Cl)cc2)n1Cc1ccco1)c1ccccc1F to OC(CNCc1ccco1)Cn1c2ccc(Br)cc2c2cc(Br)ccc21 (stereo not given), the z-score rises from -0.269 to 0.138.

Going from Cn1c(NC(=O)C[n+]2cc(-c3ccccc3)n3c2CCC3)cc(=O)n(C)c1=O to CCS(=O)(=O)N1Cc2ccccc2CC1C(=O)Nc1nnc(SCc2ccc(C#N)cc2)s1 (stereo not given), the z-score rises from -0.0764 to -0.072.

Compared with COc1ccccc1C(c1nnnn1C(C)(C)C)N1CCN(Cc2ccncc2)CC1 (stereo not given), Nc1nc2n(n1)C(c1cccs1)CC(c1ccccc1)N2 (stereo not given) is higher in z-score: -0.332 for the first, -0.0568 for the second.

Going from COCCNc1nnc(SCC(=O)Nc2sc3c(c2C(=O)c2ccccc2)CCCC3)s1 to COCCCn1c(SCC(=O)Nc2sc3c(c2C#N)CCCC3)nnc1-c1ccncc1, the z-score rises from -0.575 to -0.35.

Compared with COc1cc(S(=O)(=O)NCCN2CCOCC2)c(OC)cc1Cl, COc1cc(/C=C/C(=O)c2ccc(NS(=O)(=O)c3ccc(C)cc3)cc2)ccc1OC(F)F is higher in z-score: -0.41 for the first, -0.188 for the second.

First: Cn1cc(Cl)nc1C(O)c1ccccc1 (stereo not given)
Second: Nc1c(-c2ccccc2)n[nH]c1-c1ccccc1
The z-score of the first is higher: -0.173 for the first, -0.178 for the second.

First: O=c1[nH]c2ccsc2c(=O)n1-c1ccc(F)c(Cl)c1
Second: Cc1cc(C(=O)CN2C(=O)NC3(CCCc4sccc43)C2=O)c(C)n1-c1ccc(Cl)cc1 (stereo not given)
The z-score of the first is higher: 0.0996 for the first, -0.138 for the second.

First: CC(C(=O)Nc1ccc2c(c1)OCCO2)c1ccc([N+](=O)[O-])cc1 (stereo not given)
Second: Nc1c(C(=O)Nn2cnnc2)cc([N+](=O)[O-])cc1[N+](=O)[O-]
The z-score of the first is higher: -0.332 for the first, -0.59 for the second.

In the case of C=CCSc1nnc(CCCCCN2C(=O)c3cccc4cccc(c34)C2=O)o1, the z-score is reported as -0.269.

With CCC(=O)Oc1oc(-c2ccccc2)nc1C=Nc1ccccc1OC the z-score was active: -3.23.
In the case of Fc1ccccc1NC(=S)N/N=C/c1ccccc1Br, the z-score is reported as active: 13.4.
In the case of CCOc1cc(C2NN=C(c3ccc(C)cc3)S2)ccc1O (stereo not given), the z-score is reported as active: 8.33.
